Laboratory results: publication PMC8546722
No constants are given. Whether binding was seen depends on the method and setting. Some results given as binding are weak or reduced against the parent protein; the word gives no strength. Tags and fused reporters may be left off the sequences shown.

Tests used:
[1] = target: T1, Ffh (two-hybrid fusion) (Streptococcus mutans) (UniProt Q54431); assay: two-hybrid
T1 sequence: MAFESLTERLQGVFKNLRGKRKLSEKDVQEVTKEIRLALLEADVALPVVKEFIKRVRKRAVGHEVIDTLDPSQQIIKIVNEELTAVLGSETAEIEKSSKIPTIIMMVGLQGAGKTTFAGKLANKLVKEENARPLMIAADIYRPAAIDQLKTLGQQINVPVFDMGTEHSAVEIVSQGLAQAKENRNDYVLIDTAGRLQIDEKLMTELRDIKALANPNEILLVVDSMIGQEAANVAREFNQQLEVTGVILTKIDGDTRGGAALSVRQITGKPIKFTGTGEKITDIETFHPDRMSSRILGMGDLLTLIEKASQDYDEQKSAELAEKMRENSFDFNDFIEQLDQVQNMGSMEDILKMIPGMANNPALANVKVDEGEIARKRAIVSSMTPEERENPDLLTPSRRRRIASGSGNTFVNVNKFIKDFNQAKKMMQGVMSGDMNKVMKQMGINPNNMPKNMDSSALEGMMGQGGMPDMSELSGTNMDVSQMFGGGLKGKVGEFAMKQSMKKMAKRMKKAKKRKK

[2] = target: T2, T25-YidC1 (full-length YidC1, two-hybrid fusion) (Streptococcus mutans) (UniProt Q8DVX3); assay: two-hybrid
T2 sequence: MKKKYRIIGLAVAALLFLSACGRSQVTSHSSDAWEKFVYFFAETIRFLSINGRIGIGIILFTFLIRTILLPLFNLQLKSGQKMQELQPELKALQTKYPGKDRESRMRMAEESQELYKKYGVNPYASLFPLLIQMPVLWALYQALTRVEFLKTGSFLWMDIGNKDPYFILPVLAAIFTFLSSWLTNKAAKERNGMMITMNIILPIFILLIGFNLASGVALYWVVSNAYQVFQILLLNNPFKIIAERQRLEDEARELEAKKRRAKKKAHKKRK

[3] = target: T3, T25-YidC2 (full-length YidC2, two-hybrid fusion) (Streptococcus mutans) (UniProt Q8DSP8); assay: two-hybrid
T3 sequence: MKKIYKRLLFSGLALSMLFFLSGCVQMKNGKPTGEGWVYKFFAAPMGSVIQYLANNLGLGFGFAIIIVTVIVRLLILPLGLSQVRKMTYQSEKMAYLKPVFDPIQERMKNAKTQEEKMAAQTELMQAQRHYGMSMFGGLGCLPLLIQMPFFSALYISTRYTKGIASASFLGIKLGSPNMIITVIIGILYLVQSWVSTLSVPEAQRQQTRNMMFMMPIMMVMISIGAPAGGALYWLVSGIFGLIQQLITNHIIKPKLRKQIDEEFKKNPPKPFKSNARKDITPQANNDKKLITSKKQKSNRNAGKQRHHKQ

[4] = target: T2, T25-YidC1 (full-length YidC1, two-hybrid fusion) (Streptococcus mutans); assay: two-hybrid; bacterial two-hybrid (BACTH): T25 (pKT25) and T18 (pUT18C) fusions cotransformed in E. coli cya mutant BTH101; blue colour on LB agar with X-gal and 0.5 mM IPTG, 48 h at 30°C
[5] = target: T3, T25-YidC2 (full-length YidC2, two-hybrid fusion) (Streptococcus mutans); assay: as above
[6] = target: T2, T25-YidC1 (full-length YidC1, two-hybrid fusion) (Streptococcus mutans); assay: two-hybrid; remark: listed apart in the source
[7] = target: T1, Ffh (two-hybrid fusion) (Streptococcus mutans); assay: two-hybrid; bacterial two-hybrid (BACTH): T25 (pKT25) and T18 (pUT18C) fusions cotransformed in E. coli cya mutant BTH101; blue colour on LB agar with X-gal and 0.5 mM IPTG, 48 h at 30°C
[8] = target: T4, FtsY (two-hybrid fusion) (Streptococcus mutans) (UniProt Q8CWX8); assay: as above
T4 sequence: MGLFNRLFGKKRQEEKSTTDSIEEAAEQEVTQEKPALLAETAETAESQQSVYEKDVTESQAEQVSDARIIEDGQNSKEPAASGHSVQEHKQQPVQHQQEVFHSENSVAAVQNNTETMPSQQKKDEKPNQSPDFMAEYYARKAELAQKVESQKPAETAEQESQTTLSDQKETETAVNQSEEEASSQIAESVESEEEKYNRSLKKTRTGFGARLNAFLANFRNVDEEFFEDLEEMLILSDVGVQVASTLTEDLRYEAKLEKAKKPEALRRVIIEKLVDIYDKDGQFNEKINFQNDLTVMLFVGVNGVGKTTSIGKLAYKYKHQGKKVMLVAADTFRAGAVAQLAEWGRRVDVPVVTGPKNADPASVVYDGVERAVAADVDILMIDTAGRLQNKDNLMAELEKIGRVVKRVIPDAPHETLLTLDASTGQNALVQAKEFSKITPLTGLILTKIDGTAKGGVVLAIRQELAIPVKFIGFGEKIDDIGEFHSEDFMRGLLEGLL

Molecule: SecE (two-hybrid fusion) (from UniProt Q8DS81 1-58)
- binding [1]: no binding

Molecule: DnaK (two-hybrid fusion) (from UniProt O06942 1-612)
- binding [2]: binds
- binding [3]: binds

Molecule: HlyX (two-hybrid fusion) (from UniProt O68574 1-445)
- binding [4]: binds
- binding [5]: binds

B1: Ffh (two-hybrid fusion) (protein, UniProt Q54431 1-516)
chain: MAFESLTERLQGVFKNLRGKRKLSEKDVQEVTKEIRLALLEADVALPVVKEFIKRVRKRAVGHEVIDTLDPSQQIIKIVNEELTAVLGSETAEIEKSSKIPTIIMMVGLQGAGKTTFAGKLANKLVKEENARPLMIAADIYRPAAIDQLKTLGQQINVPVFDMGTEHSAVEIVSQGLAQAKENRNDYVLIDTAGRLQIDEKLMTELRDIKALANPNEILLVVDSMIGQEAANVAREFNQQLEVTGVILTKIDGDTRGGAALSVRQITGKPIKFTGTGEKITDIETFHPDRMSSRILGMGDLLTLIEKASQDYDEQKSAELAEKMRENSFDFNDFIEQLDQVQNMGSMEDILKMIPGMANNPALANVKVDEGEIARKRAIVSSMTPEERENPDLLTPSRRRRIASGSGNTFVNVNKFIKDFNQAKKMMQGVMSGDMNKVMKQMGINPNNMPKNMDSSALEGMMGQGGMPDMSELSGTNMDVSQMFGGGLKGKVGEFAMKQSMKKMAKRMKKAKKRKK
- binding [6]: binds
- binding [5]: binds

B2: YlxM (two-hybrid fusion) (protein, UniProt P96468 1-110)
chain: MEIEKTNRMNALFEFYAALLTDKQMNYIELYYADDYSLAEIAEEFDVSRQAVYDNIKRTEKILEDYEMKLHMYSDYVVRSEIFDAIMKKYPNDPYLQNKISILTTIDNRD
- binding [7]: binds
- binding [8]: no binding
- binding [4]: binds
- binding [5]: binds

B3: FtsY (two-hybrid fusion) (protein, UniProt Q8CWX8 1-498)
chain: MGLFNRLFGKKRQEEKSTTDSIEEAAEQEVTQEKPALLAETAETAESQQSVYEKDVTESQAEQVSDARIIEDGQNSKEPAASGHSVQEHKQQPVQHQQEVFHSENSVAAVQNNTETMPSQQKKDEKPNQSPDFMAEYYARKAELAQKVESQKPAETAEQESQTTLSDQKETETAVNQSEEEASSQIAESVESEEEKYNRSLKKTRTGFGARLNAFLANFRNVDEEFFEDLEEMLILSDVGVQVASTLTEDLRYEAKLEKAKKPEALRRVIIEKLVDIYDKDGQFNEKINFQNDLTVMLFVGVNGVGKTTSIGKLAYKYKHQGKKVMLVAADTFRAGAVAQLAEWGRRVDVPVVTGPKNADPASVVYDGVERAVAADVDILMIDTAGRLQNKDNLMAELEKIGRVVKRVIPDAPHETLLTLDASTGQNALVQAKEFSKITPLTGLILTKIDGTAKGGVVLAIRQELAIPVKFIGFGEKIDDIGEFHSEDFMRGLLEGLL
- binding [6]: binds
